Assay results taken from ChEMBL document CHEMBL4888484, “Replenishing the malaria drug discovery pipeline: Screening and hit evaluation of the MMV Hit Generation Library 1 (HGL1) against asexual blood stage Plasmodium falciparum ,using a nano luciferase reporter read-out” (2022).
The campaign covered roughly 150,000 compounds. About 540 (0.36%) showed an effect of 50% or more. Some of the results follow.

What follows are molecules tested on Plasmodium falciparum (assay: Primary screen in NF54 nanoGlo assay, in single point, at 2uM, 72h; a lower Z score goes with more inhibition). Conditions: timepoint 72 hour.
Format: functional, Erythrocyte

Row | Compound | % Inhibition [%] | Z score
1 | CC(C)(C)c1cc(CN2CC[C@H]3CC[C@@H](C2)N3)n[nH]1 | -12 | 1.46
2 | Cc1cccc(NC(=O)Cn2cnc3cc4c(cc32)OCCCO4)c1C | -12 | 1.7
3 | COc1cc(C)ccc1OCc1nc(C(=O)N[C@@H](C)C2CC2)co1 | 2 | -0.39
4 | CN(C)C1CCN(C(=O)c2ccccc2-c2ccccc2)CC1 | -9 | 1.12
5 | CCCCc1noc([C@H](C)N2CCOc3cc(OC)ccc3C2)n1 | 0 | 0.05
6 | Cc1cccc(NC(=O)CCc2c(C)nn(-c3ccc4nnc(C)n4n3)c2C)c1C | -16 | 2.05
7 | CNC(=O)C[C@H]1CCN(C(=O)c2ncccc2O)C1 | -13 | 2.59
8 | Cc1onc(N)c1S(=O)(=O)N1CC2(CCC2)[C@@H]1C(C)C | -5 | 0.58
9 | CCC[C@H]1CN(Cc2nnc(C)n2C)C[C@@H]1NC(=O)C1CCC1 | -1 | 0.1
10 | CC1CCN([C@H]2CS(=O)(=O)C[C@@H]2S(=O)(=O)c2cccs2)CC1 | 7 | -0.88
11 | Cc1cc(S(=O)(=O)[C@@H](CN2C(=O)c3ccccc3C2=O)c2cccnc2)ccc1F | -9 | 1.27
12 | C#CCNC(=O)c1cc(-c2ccc3c(c2)OCO3)n(CC)n1 | -22 | 1.98
13 | COc1cncc(O[C@H]2CCCN(S(=O)(=O)C3CC3)C2)n1 | -9 | 1.53
14 | COc1ccc(-c2noc(Cn3cnc4ccccc4c3=O)n2)cc1OC | -5 | 0.61
15 | CCC(=O)N(Cc1c(-c2ccccc2)noc1N(CC)CC)C(C)C | -17 | 1.98
16 | CC(C)(O)Cn1nc(-c2c[nH]c3ccccc23)nc1C[C@H]1CCCOC1 | -5 | 0.77
17 | COC(=O)c1c(NS(=O)(=O)C[C@H](C)OC)c2cccnc2n1C | -1 | 0.15
18 | Cc1cc2nc(N3CCOCC3)n(CC(=O)Nc3cccc(F)c3)c(=O)c2n1C | -18 | 1.98
19 | Cc1cccc(-c2ncc(C(=O)N3CCC(c4nncn4C)CC3)c(O)n2)c1 | 1 | -0.06
20 | CC(C)C[C@@H](C(=O)Nc1cccc(NC(=O)C(C)C)c1)N1CCCCC1=O | -5 | 1.16
21 | CO[C@H]1[C@@H]2CC[C@H]1CN(Cc1ccccc1OCC(=O)N1CCCCC1)C2 | -8 | 1.56

Row | Compound | % Inhibition [%] | Z score
22 | O=C(Nc1ccc(Cl)c(Cl)c1)N1CCC[C@H]1c1ccc2c(c1)OCCCO2 | 0 | 0.07
23 | CCCC(=O)Nc1nnc(CC(=O)N2CCCC2)s1 | 0 | 0.02
24 | Cc1cc(F)ccc1C(=O)N1CCCC[C@@H]1CCN1CCCC1 | 0 | 0.03
25 | CCN1CCN(C(=O)c2csc(NC(=O)c3ccccc3C)n2)CC1 | 1 | -0.1
26 | O=C(CN1CC2(CCCCC2)CC1=O)N1CCN(C(=O)c2ccco2)CC1 | 0 | -0.02
27 | COc1nscc1-c1ncc(C(C)C)s1 | -9 | 0.91
28 | COC[C@@H]1[C@H](C(=O)NCc2ccccc2)CCC(=O)N1C | -3 | 0.3
29 | COCCN(Cc1cc(NC(=O)CC(C)(C)C)ccc1N(C)C)C(=O)c1ccco1 | 7 | -0.67
30 | O=C(NCc1cccc(CO)c1)N1CCC[C@@H]1CCc1ccccc1 | -5 | 0.74
31 | c1ccc(-c2cc(CNc3ncnc4c3CCNCC4)[nH]n2)cc1 | -13 | 1.3
32 | COc1nccnc1C[C@@H]1COc2ccccc2C1 | 4 | -0.61
33 | CC1CC(C)CN(C(C(=O)NC2CCCC2)c2ccc(Cl)cc2)C1 (stereo unspecified) | -7 | 1.06
34 | O=C(NC[C@H]1CCCO1)c1nn(-c2ccc(Cl)cc2)c(=O)n(Cc2ccc(F)cc2)c1=O | -19 | 1.96
35 | CS(=O)(=O)c1ccccc1-c1nnc(NC(=O)c2ccc3c(c2)CCCC3)o1 | -13 | 1.67
36 | CC(C)(O)CN1CCN(c2ccc(F)c3cnccc23)CC1 | -18 | 3.35
37 | CCOC1CCN(C(=O)Nc2cccc(N3CCCCCC3)c2)CC1 | 0 | 0.07
38 | CCN(CC(=O)Nc1cn[nH]c1)C1CC1 | -11 | 1.91
39 | O=C(CCc1ccccc1)Nc1ccc(N2C(=O)c3ccccc3C2=O)c(Cl)c1 | -6 | 0.82
40 | O=C(Nc1ccc(N2CCCN(Cc3cccc(F)c3)C2=O)cc1)C1CCC1 | -7 | 1.31
41 | Cc1cc(F)ccc1-n1cc(C(=O)N2C[C@H]3CCC[C@H]3C2)nn1 | 2 | -0.29
42 | COc1ccc(CN(C(=O)COc2c(C)cccc2C)[C@H]2CCS(=O)(=O)C2)cc1OC | 10 | -0.88

Row | Compound | % Inhibition [%] | Z score
43 | CC1(C)CN(C(=O)c2cccc(Nc3nccs3)c2)[C@H]2COC[C@H]21 | -16 | 2.12
44 | COc1cccc(-c2nccn2CCCOC2CCN(C)CC2)c1 | -5 | 0.57
45 | Cn1c(N)c(S(=O)(=O)N2CCN(c3ccccc3Cl)CC2)c(=O)n(C)c1=O | 59 | -11.06
46 | C[C@H]1CN(S(=O)(=O)c2cccnc2)c2cccc(Cl)c2O1 | 1 | -0.09
47 | Cc1cc2c(cc1-c1cc(-c3ccc[nH]3)nc(N)c1C#N)OCCO2 | -11 | 1.3
48 | CC(C)[C@H](NCC(=O)Nc1ccc(Cl)cn1)c1nnc2ccccn12 | -7 | 0.89
49 | O=C(NCCN1CCCC1=O)[C@H](O)c1cccc(F)c1 | 5 | -0.99
50 | CN(C)CCN(CCN(C)C)S(=O)(=O)c1c(F)cccc1F | -15 | 1.54
51 | CN(CC(C)(C)CO)C(=O)c1ccc(-c2ccc3nccc(O)c3c2)cc1 | 0 | -0.04
52 | Cc1ncc(C(=O)Nc2ccc(F)c(NS(C)(=O)=O)c2)c(C(C)C)n1 | -8 | 1.34
53 | CC[C@H](NC(=O)c1cnc(O)cn1)c1cnn(C)c1 | -12 | 1.45
54 | COc1cccc(NC(=O)[C@@H]2CC(=O)c3cc(F)ccc3O2)c1 | 31 | -3.56
55 | Cc1ccc(CN2CCc3nc(N4CCCCC4)nc(Oc4ccc(F)c(F)c4)c3C2)cc1 | 2 | -0.33
56 | O=C(NCCCn1ccnn1)c1ccc2c(c1)CCCC2 | -13 | 1.47
57 | COc1ccc(-c2cc3c4nn(CC(=O)Nc5cccc(C)c5C)c(=O)n4ccn3n2)cc1 | -9 | 1.28
58 | O=C(CCc1ccsc1)N1CCCCCCC1 | -11 | 1.08
59 | O[C@]1(CN2CCCC2)COCCN(c2nnnn2-c2ccccc2)C1 | -4 | 0.67
60 | Cc1nnsc1C(=O)N1CCc2sc(Cl)cc2C1 | -4 | 0.43
61 | Cc1cnn(CCNC(=O)C2(C)COC2)c1 | -9 | 1.52
62 | CCCNC(=O)N(CC(=O)N1CCN(c2ccc(-c3ccc(OC)c(OC)c3)nn2)CC1)C[C@H]1CCCO1 | -8 | 1.31
63 | CCOc1ccc(CC(=O)N2CC[C@H](c3nc4ccncc4n3C(C)C)C2)cc1 | -19 | 1.82

Row | Compound | % Inhibition [%] | Z score
64 | CN(C)c1nc(N)nc(CN(C)[C@H](c2ccc(F)cc2)C2CC2)n1 | 7 | -0.92
65 | Cc1ccc(-c2nnc([C@H](C)Nc3cnn(CC(F)(F)F)c3)o2)cc1 | 4 | -0.59
66 | O=C1NCCCN1C1CCN(Cc2ccc(Cl)c(C(F)(F)F)c2)CC1 | 10 | -1.75
67 | CCn1ccnc1[C@H]1OCCC[C@@H]1NC(=O)c1csc2cncn12 | -13 | 2.51
68 | COc1ccc(C(=O)NC(C)CCC2CCCO2)c(O)c1 (stereo unspecified) | -12 | 1.84
69 | CN(C(=O)N1CC[C@H](OC(F)F)C1)c1ccc(F)cc1 | -31 | 3.66
70 | CN1CC(C(=O)N2CC3CC=CCC3C2)CC1=O (stereo unspecified) | -18 | 2.42
71 | COC[C@@H]1CN(c2cnccn2)C[C@H]1C(=O)NC(C)C | -8 | 1.19
72 | Cc1n[nH]c(C)c1CNC(=O)N[C@@H](C)c1ccc(F)cc1 | -12 | 2.37
73 | CN(C(=O)[C@H]1CCCOC1)c1ncccc1C#N | -6 | 0.95
74 | CC(C)Cn1c(=O)c2sccc2n(CC(=O)N2CCCC2)c1=O | 37 | -5.42
75 | COc1ccc2nc(O)c(-c3nc4ccccn4c3Nc3ccc(C)cc3C)cc2c1 | -7 | 0.9
76 | COc1ccc2c(c1)CCCN2C(=O)COC(=O)c1cc(=O)c2c(C)nn(C)c2[nH]1 | -3 | 0.6
77 | O=C(NC(CC1CCCO1)C(F)(F)F)c1cc2n(n1)CCCO2 (stereo unspecified) | -17 | 2.01
78 | O=C1CN(C(=O)c2ccc3c(c2)n(CC2CC2)c(=O)n3C2CCCCC2)CCN1 | -10 | 0.96
79 | Cn1c(=O)sc2cc(NS(=O)(=O)c3ccc(C4CCCCC4)cc3)ccc21 | 7 | -0.91
80 | CC(C)C(=O)N1C[C@H](CNC(=O)OC(C)(C)C)C2(CCOCC2)C1 | -7 | 0.85
81 | Cc1ccccc1NC(=O)N1CCC(N2CCC(CC3CC3)(C(N)=O)CC2)CC1 | 7 | -0.93
82 | CCN(Cc1nc2c(s1)C[C@@H](C)CC2)C(=O)Cn1cnnn1 | 3 | -0.57
83 | O=C(NCC[C@H]1CCC(F)(F)C1)Nc1cnnn1-c1ccccc1 | -2 | 0.34
